Results as given in PubChem BioAssay AID504332 (National Center for Advancing Translational Sciences (NCATS), 2011).
The whole screen tested about 350,000 compounds, of which about 31,000 (8.9%) were called active. Inconclusive results, whose numbers are uncertain, are shown with a selection of clear calls. The call rests on the fitted dose curve; in most records, active means well fitted inhibition curve with a large enough effect; inconclusive means small, poorly fitted or top-dose-only effect; inactive means no such curve, though single readings can be large or run the other way. Where the call is inconclusive, the potency comes from a doubtful curve fit.

biological target: Histone-lysine N-methyltransferase EHMT2 (Homo sapiens) (UniProt Q96KQ7); experiment: qHTS Assay for Inhibitors of Histone Lysine Methyltransferase G9a; conditions: G9a H3K9 monomethylation, AlphaScreen, 2 h; activity, negative = inhibition: at 59 µM (top of the series) unless noted; further: nearly all actives have a fitted effect of over 75% in size
Sequence of UniProt Q96KQ7 (Q96KQ7 whole entry, looked up): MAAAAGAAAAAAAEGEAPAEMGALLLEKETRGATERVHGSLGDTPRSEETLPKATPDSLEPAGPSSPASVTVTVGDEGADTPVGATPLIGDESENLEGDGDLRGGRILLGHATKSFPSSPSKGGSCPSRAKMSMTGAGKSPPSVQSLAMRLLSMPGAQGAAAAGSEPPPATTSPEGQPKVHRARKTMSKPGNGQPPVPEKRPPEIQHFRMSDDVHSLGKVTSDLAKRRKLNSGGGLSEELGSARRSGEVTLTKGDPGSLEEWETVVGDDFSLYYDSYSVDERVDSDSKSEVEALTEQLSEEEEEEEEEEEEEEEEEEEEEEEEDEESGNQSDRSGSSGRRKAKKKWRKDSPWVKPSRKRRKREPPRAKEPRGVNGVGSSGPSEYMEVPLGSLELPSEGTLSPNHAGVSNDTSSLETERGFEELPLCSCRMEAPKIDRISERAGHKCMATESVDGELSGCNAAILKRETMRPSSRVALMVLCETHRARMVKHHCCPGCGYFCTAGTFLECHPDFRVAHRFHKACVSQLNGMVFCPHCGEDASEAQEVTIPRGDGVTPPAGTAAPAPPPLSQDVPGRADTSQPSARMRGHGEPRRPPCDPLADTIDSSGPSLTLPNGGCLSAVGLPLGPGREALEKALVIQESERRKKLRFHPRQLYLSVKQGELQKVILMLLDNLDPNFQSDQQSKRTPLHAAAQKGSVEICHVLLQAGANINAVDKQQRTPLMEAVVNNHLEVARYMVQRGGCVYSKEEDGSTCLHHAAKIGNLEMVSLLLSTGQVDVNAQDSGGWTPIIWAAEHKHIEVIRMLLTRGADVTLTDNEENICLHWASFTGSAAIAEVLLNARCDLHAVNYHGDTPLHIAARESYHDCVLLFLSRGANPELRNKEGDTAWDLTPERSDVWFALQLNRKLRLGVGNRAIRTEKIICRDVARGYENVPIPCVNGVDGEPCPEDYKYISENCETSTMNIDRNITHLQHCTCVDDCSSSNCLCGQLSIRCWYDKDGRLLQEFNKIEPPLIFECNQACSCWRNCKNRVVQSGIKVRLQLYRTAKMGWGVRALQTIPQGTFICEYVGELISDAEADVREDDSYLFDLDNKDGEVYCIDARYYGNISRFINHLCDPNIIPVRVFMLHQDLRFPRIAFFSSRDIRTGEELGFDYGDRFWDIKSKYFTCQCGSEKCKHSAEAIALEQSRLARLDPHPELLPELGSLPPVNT
In short: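 Using a bead-based AlphaScreen, monomethylated H3K9 product from 2 h room-temperature reactions (G9a 20 nM, peptide 500 nM, SAM 20 uM) was detected with 0.5 ug/mL rabbit anti-H3K9me1 antibody.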
On the % scale 0 is the no-effect control and ±100 the full control effect; potency means the concentration at half of the fitted maximal effect; tags describe the fitted curve by direction and shape.

| SMILES | Potency | activity, negative = inhibition |
| --- | --- | --- |
| COC(=O)C1=C(C)N(Cc2ccco2)C(=O)C1 | inconclusive: 1.78 µM [inhibitor, partial curve, poor fit] | – |
| CN(C)c1ccc(CNC(=O)c2cc3cc(S(=O)(=O)N4CCCCC4)ccc3n2C)cc1 | inconclusive: 17.8 µM [inhibitor, partial curve, poor fit] | – |
| CC(c1ccon1)N(C)Cc1cn[nH]c1-c1ccc(-c2ccccc2)cc1 (centres undefined) | inconclusive: 56.2 µM [inhibitor, partial curve] | – |
| CN(C)C(=O)c1cccn(Cc2cccc(C(F)(F)F)c2)c1=O | inconclusive: 70.8 µM [inhibitor, partial curve, poor fit] | – |
| Cn1nc(C(=O)Nc2cccc(S(=O)(=O)N3CCCCC3)c2)c2ccccc2c1=O | active: 39.8 µM | – |
| Cc1cccn2c(=O)c(C(=O)NCCCN3CC(C)CC(C)C3)c(O)nc12 (centres undefined) | inconclusive: 100 µM [inhibitor, partial curve, poor fit] | – |
| COc1ccc(-c2noc(CSc3nc(N)c(-c4ccccc4)c(=O)[nH]3)n2)cc1OC | inconclusive: 44.7 µM [inhibitor, single point] | – |
| COc1cc2ccccc2cc1C(=O)NC(=S)Nc1cccc(C(=O)O)c1 | inconclusive: 44.7 µM [inhibitor, single point] | – |
| CSc1ccccc1C(=O)Nc1cccc(C)c1 | active: 44.7 µM | – |
| CCn1c(C(C)NC(=O)c2ccc(OC)c(OC)c2)nc2ccccc21 (centres undefined) | inconclusive: 79.4 µM [inhibitor, single point] | – |
| Nc1ccc(OCCc2ccccc2)cc1 | active: 50.1 µM | – |
| O=c1c2cc(N3CCOCC3)ccc2[nH]c(=S)n1CCN1CCCC1 | – | inconclusive: -87.8% [inhibitor] |
| Cc1ccc(NC(=O)CSc2nnnn2C2CC2)cc1S(=O)(=O)N1CCOCC1 | inconclusive: 89.1 µM [inhibitor, partial curve, poor fit] | – |
| CC(=O)N1CCC(C(=O)OCc2ccccc2F)(c2ccccc2)CC1 | inactive | – |
| Cc1ccc(Cl)c2sc(NC(=O)CS(=O)(=O)c3ccc(Cl)cc3)nc12 | inactive | – |
| COc1cc2c(cc1O)[C@H](Cc1ccc(Oc3cc(C[C@@H]4NCCc5cc(OC)c(O)cc54)ccc3O)cc1)NCC2 | active: 12.6 µM | – |
| CN(CC(=O)Nc1ccccc1Cl)C(=O)COC(=O)Cc1ccc(F)cc1 | inactive | – |
| Cc1nn(C)c(C(=O)Nc2ccn(C34CC5CC(CC(C5)C3)C4)n2)c1[N+](=O)[O-] | inconclusive: 31.6 µM [inhibitor, single point] | – |
| CCCCN(C)C(=O)C1CCCN(c2ncnc3onc(-c4ccc(F)cc4)c23)C1 (centres undefined) | inactive | – |
| Cc1cccc(N2CCN(C(=O)CSCc3ccc(F)cc3)CC2)c1C | inactive | – |
| Oc1ccc(N2CCN(C(c3ccncc3)c3nnnn3C3CCCC3)CC2)cc1 (centres undefined) | – | inconclusive: -114% [inhibitor] |
| O=C1C(Cl)=C(NCC2CCCO2)C(=O)N1c1ccccc1 (centres undefined) | inconclusive: 89.1 µM [inhibitor, partial curve, poor fit] | – |
| Cc1nn(-c2ccccn2)c2c1-c1nc(N)ncc1CC2 | inconclusive: 89.1 µM [inhibitor, partial curve, poor fit] | – |

| SMILES | Potency | activity, negative = inhibition |
| --- | --- | --- |
| COc1ccc(-c2cn3nc(N4CCC(C(=O)Nc5cccc(Cl)c5)CC4)sc3n2)cc1 | inconclusive: 39.8 µM [inhibitor, partial curve, poor fit] | – |
| Cc1ccc(S(=O)(=O)N2CCCCC2)cc1NC(=O)COC(=O)c1cc[n+]([O-])cc1 | inconclusive: 89.1 µM [inhibitor, single point] | – |
| Cc1ccc(NC(=O)Nc2nnc(N3CCCC3)s2)c(C)c1 | inactive | – |
| Cc1nn(C)cc1/C=N/NC(=S)Nc1ccccc1 | inconclusive: 39.8 µM [inhibitor, single point] | – |
| O=C(O)c1ccc(-n2nc(C(F)(F)F)cc2-c2cccs2)cc1 | inactive | – |
| COc1ccccc1NCC(=O)NNCC(=O)Nc1ccc(F)c(Cl)c1 | inconclusive: 25.1 µM [inhibitor, full curve] | – |
| COc1cc(CN(CC2CCCO2)C(=O)c2ccc(F)cc2)cc(OC)c1OC (centres undefined) | inactive | – |
| O=C(COC(=O)c1cccc(F)c1)NC(=O)NC1CCCC1 | inconclusive: 3.16 µM [inhibitor, partial curve, poor fit] | – |
| CC(=O)N1CCCc2cc(S(=O)(=O)N3CCC(C(=O)NCc4ccc(N(C)C)cc4)CC3)ccc21 | inconclusive: 11.2 µM [inhibitor, partial curve] | – |
| COc1ccc(C(=O)NCC(=O)OCCCOC(=O)CNC(=O)c2ccc(OC)c(OC)c2)cc1OC | inconclusive: 89.1 µM [inhibitor, single point] | – |
| CSCC(C)N1CCC(Oc2cccc(C(=O)NCc3ccccn3)c2)CC1 (centres undefined) | inconclusive: 2.82 µM [inhibitor, partial curve, poor fit] | – |
| COc1ccc(CN2CCNC(=O)C2CC(=O)NC2CCCCCCC2)cc1C (centres undefined) | inconclusive: 50.1 µM [inhibitor, partial curve, poor fit] | – |
| O=C1C2CCCN2C(c2cccc(Br)c2)N1c1ccc(F)cc1 (centres undefined) | active: 70.8 µM | – |
| CCC(C)[C@H]1CNCCN1CCc1cc(C(F)(F)F)cc(C(F)(F)F)c1 (some centres undefined) | – | inactive: -19.5% [at 2.33 µM] |
| COCCCn1c(SCC(=O)N2CCOCC2)nc2ccccc2c1=O | inconclusive: 39.8 µM [inhibitor, single point] | – |
| Cc1cc(Br)ccc1NC(=O)CCS(=O)(=O)c1cccc2nsnc12 | inconclusive: 25.1 µM [inhibitor, partial curve, poor fit] | – |
| CC1CC(C)CN(CC(=O)Nc2cc(S(=O)(=O)N3CCOCC3)ccc2N2CCCC2)C1 (centres undefined) | inconclusive: 1.58 µM [inhibitor, partial curve, poor fit] | – |
| CCc1cc(=O)oc2cc(OCc3ccc(C(=O)O)o3)ccc12 | inconclusive: 89.1 µM [inhibitor, single point] | – |
| O=C(CCNS(=O)(=O)c1ccccc1C(F)(F)F)NC1CCCCCC1 | inactive | – |
| Cc1ccc(Oc2ccc(NC(=O)c3ccco3)cc2)cc1 | inconclusive: 1.41 µM [inhibitor, single point] | – |
| Cc1ccccc1-n1c(SCC(=O)N2CCN(c3ccccc3)CC2)nnc1-c1ccncc1 | active: 44.7 µM | – |
| CCOc1ccc2nc(NC(=O)CS(=O)(=O)c3ccc(Cl)cc3)sc2c1 | inactive | – |
| Cc1ccc(C2c3c(oc4ccccc4c3=O)C(=O)N2c2ccc(C)cn2)cc1 (centres undefined) | inconclusive: 39.8 µM [inhibitor, single point] | – |

| SMILES | Potency | activity, negative = inhibition |
| --- | --- | --- |
| COC(=O)c1cc(NC(=O)c2ccc([N+](=O)[O-])cc2)c(=O)oc1C | inconclusive: 3.55 µM [inhibitor, partial curve, poor fit] | – |
| COc1ccc(OCc2nc(N)nc(Nc3ccc(C)cc3)n2)cc1 | inactive | – |
| COC(=O)/C(=C\Nc1cccc(Cl)c1C)c1ncc(C(F)(F)F)cc1Cl | inconclusive: 10 µM [inhibitor, partial curve, poor fit] | – |
| Cc1ccc(C(C)C)c(OCC(=O)Nc2ccc(S(=O)(=O)Nc3onc(C)c3C)cc2)c1 | inactive | – |
| Cc1cc2c(cc1C)N(C(=O)CN1C(=O)c3ccccc3C1=O)C(C)(C)c1ssc(=S)c1-2 | active: 28.2 µM | – |
| Cc1ccc2c(c1)sc1nc(=O)n(-c3ccccc3)c(=O)n12 | inactive | – |
| O=C(O)c1nccnc1C(=O)Nc1ccc(S(=O)(=O)N2CCOCC2)cc1 | active: 44.7 µM | – |
| CCOC(=O)c1c(NC(=O)CSc2nnc(Cc3ccccc3)o2)sc(C(C)=O)c1C | – | inactive: 2.34% [at 2.33 µM] |
| CCCCOC(=O)c1ccc(NC(=O)CSc2nc3c(c(=O)[nH]2)CCCC3)cc1 | inconclusive: 39.8 µM [inhibitor, partial curve, poor fit] | – |
| Cc1c(-c2ccc(Br)cc2)nc2ccccn12 | active: 44.7 µM | – |
| CCOc1ccccc1NC(=O)CN1C(=O)CC(c2ccc(OC)c(OC)c2)Sc2ccccc21 (centres undefined) | inconclusive: 22.4 µM [inhibitor, partial curve, poor fit] | – |
| COc1ccccc1OCc1cc(C(=O)N(C)CCC2CCCCO2)no1 (centres undefined) | inactive | – |
| CC1CC(C)(C)NC(=S)N1CCC(=O)N1CCc2ccccc2C1 (centres undefined) | inconclusive: 31.6 µM [inhibitor, partial curve, poor fit] | – |
| O=C(CCSc1ccccc1)NCCSCc1ccco1 | inactive | – |
| Cc1ccc(-c2nnc(C3CCN(S(=O)(=O)c4ccc(C)c(C)c4)CC3)o2)cc1 | inconclusive: 31.6 µM [inhibitor, partial curve, poor fit] | – |
| CCOC(=O)CNC(=O)CSc1nc2nc(C)c(Br)cc2[nH]1 | active: 35.5 µM | – |
| COc1ccc(C2CC(c3cccc(C)c3)n3nc(N)nc3N2)cc1 (centres undefined) | inconclusive: 0.794 µM [inhibitor, partial curve, poor fit] | – |
| Cc1ccc(S(=O)(=O)Nc2ccc(C(OC(=O)c3ccccc3[N+](=O)[O-])(C(F)(F)F)C(F)(F)F)cc2)cc1 | inconclusive: 6.31 µM [inhibitor, full curve] | – |
| O=C(NCc1ccccc1)c1nn(-c2ccccc2)nc1CO | inactive | – |
| O=C(NCc1ccc(F)cc1)c1cc2c(=O)n3ccccc3nc2s1 | inactive | – |
| C[C@@H](NC(=O)c1coc(=O)c(Br)c1)c1ccccc1 | inactive | – |
| Cc1ccc(N2C(=O)CCSC23C(=O)N(Cc2ccccc2)c2ccccc23)cc1F (centres undefined) | inconclusive: 28.2 µM [inhibitor, partial curve, poor fit] | – |
| COCCCC1CCN(C(=O)C2CCC(=O)N(Cc3cccc(F)c3)C2)CC1 (centres undefined) | – | inactive: -6.4% [at 0.0925 µM] |
